Results taken from PubChem BioAssay AID1346428 (National Center for Advancing Translational Sciences (NCATS), 2018).
Out of some 48,000 compounds screened, about 1,200 (2.5%) were called active. Inconclusive results (about 2%) are left out.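 The calls were made as follows: active = activation of at least 60% and not above a set upper limit (about 1 call in 100 departs from these limits); inconclusive = activation of 40% to 60%, or above that upper limit; inactive = activation under 40%.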 Some of the results follow.

Target: Probable G-protein coupled receptor 32 (Homo sapiens) (UniProt O75388)
Sequence of UniProt O75388 (O75388 whole entry, looked up): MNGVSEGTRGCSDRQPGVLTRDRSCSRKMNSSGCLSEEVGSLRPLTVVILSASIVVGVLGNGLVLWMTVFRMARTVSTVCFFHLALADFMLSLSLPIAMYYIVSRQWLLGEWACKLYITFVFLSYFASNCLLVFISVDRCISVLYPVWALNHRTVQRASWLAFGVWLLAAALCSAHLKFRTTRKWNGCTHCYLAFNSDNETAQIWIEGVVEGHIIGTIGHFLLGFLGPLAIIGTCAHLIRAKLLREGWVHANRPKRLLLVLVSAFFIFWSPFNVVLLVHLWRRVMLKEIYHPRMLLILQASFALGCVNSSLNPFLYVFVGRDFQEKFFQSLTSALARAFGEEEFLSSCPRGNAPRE
Assay: qHTS for Agonists of Human Resolvin D1 Receptor DRV1; also: 0% is about no effect
Settings: CHO-K1 GPR32 beta-arrestin PathHunter luminescence, 90 min; at 76.9 µM; active compounds read high; zero percent set by DMSO-only wells
In short: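 Step 1: seed CHO-K1 GPR32 beta-arrestin cells, 2,500/well, overnight at 37 °C. Step 2: add compounds, 90 min at 37 °C. Step 3: detection reagent, 1 h ambient, then luminescence.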

Q: Which activation does the source give for `CC(=O)N1CCc2cc(Br)cc(S(=O)(=O)CCC(=O)N3CCN(c4ccccc4)CC3)c21` here?
A: Its activation is inactive: -1.84%.

Q: `CCOc1ccc2nc(N3CCCC(C(=O)Nc4ccc(OC)c(Cl)c4)C3)sc2c1` (configuration not stated) was tested. Which activation did it give?
A: Its activation is inactive: -5.9%.

Q: For `Cc1cc(-c2ccc(C)c(S(=O)(=O)NCCc3ccc(S(N)(=O)=O)cc3)c2)on1`, which activation is on record?
A: The activation was inactive: -6.83%.

Q: How did the activation turn out when `CN(C)S(=O)(=O)c1ccc2c(c1)N(CC(=O)Nc1ccc(F)cc1)C(=O)CS2` was run?
A: The activation was inactive: -30.4%.

Q: With `Cc1nn(-c2ccccc2)c2c1cc1c(=O)n(C)c(=O)nc-1n2-c1cccc(Cl)c1` as the compound, how does the activation read?
A: The activation was inactive: -2.54%.

Q: For `O=C(COC(=O)C(Cc1c[nH]c2ccccc12)NC(=O)c1ccc(Cl)cc1)c1ccc(Cl)cc1` (configuration not stated), which activation is on record?
A: The activation was inactive: -26.7%.

Q: With `Oc1ccc(-c2nc(-c3ccccc3)c(-c3ccc(Br)cc3)[nH]2)cc1` as the compound, how does the activation read?
A: The activation was inactive: 4.86%.

Q: With `Cc1cc(C)c(NC(=O)CCn2c(=O)c3cccn3c3ccccc32)c(C)c1` as the compound, how does the activation read?
A: The activation was inactive: -19.1%.

Q: How did the activation turn out when `CCN1CCN(C(c2ccc(SC)cc2)c2c(O)cc(C)n(Cc3ccco3)c2=O)CC1` (configuration not stated) was run?
A: The activation was inactive: -14.5%.

Q: With `COc1ccccc1NC(=O)C1CCN(S(=O)(=O)c2ccc3[nH]c4c(c3c2)CCCCC4)CC1` as the compound, how does the activation read?
A: Its activation is inactive: -9.21%.

Q: For `COc1ccc(-c2cc(=O)c3cc(OCC(=O)OC(C)C)ccc3o2)cc1`, which activation is on record?
A: Its activation is inactive: -5.43%.

Q: How did the activation turn out when `CN(C)CC/C=C1/c2ccccc2COc2ccc(CC(=O)O)cc21` was run?
A: The activation was inactive: -6.12%.

Q: How did the activation turn out when `COC(=O)c1sc(N2C(=O)c3oc4ccccc4c(=O)c3C2c2ccc(O)cc2)nc1C` (configuration not stated) was run?
A: Its activation is inactive: -3.65%.

Q: With `COCCCN1C(=O)c2[nH]nc(-c3ccccc3O)c2C1c1ccc(OCc2ccccc2)cc1` (configuration not stated) as the compound, how does the activation read?
A: The activation was inactive: 25.5%.

Q: For `COc1cc(NC(=O)CCS(=O)(=O)c2nc(-c3ccc4c(c3)OCO4)cc(C(F)(F)F)n2)cc(OC)c1OC`, which activation is on record?
A: The activation was inactive: 10.5%.

Q: With `COc1ccc(CCNC(=O)c2oc(=O)c3ccccc3c2-c2ccccc2)cc1OC` as the compound, how does the activation read?
A: The activation was inactive: -5.14%.

Q: How did the activation turn out when `COc1ccc(CNC(=O)CN2C(=O)COc3ccc(S(=O)(=O)N4CCC(C)CC4)cc32)cc1` was run?
A: The activation was inactive: -7.36%.

Q: `Cc1ccc(NC(=O)Cn2c(=O)n(CCCCC(=O)NCCc3ccc(Cl)cc3)c(=O)c3ccccc32)cc1` was tested. Which activation did it give?
A: Its activation is inactive: -8.71%.

Q: Which activation does the source give for `CCc1c(C)sc2c1CCN(C(=O)Nc1cc(C)cc(C)c1)C2c1ccccc1` (configuration not stated) here?
A: Its activation is inactive: -6.27%.

Q: `COCCCNC(=O)CSc1nc2cc3c(cc2c(=O)n1CCCCCC(=O)NCc1ccc2c(c1)OCO2)OCO3` was tested. Which activation did it give?
A: Its activation is inactive: -9.01%.

Q: `Cc1nc(NC(=O)c2c(-c3ccccc3)c(-c3ccccc3)nn(C)c2=O)sc1C` was tested. Which activation did it give?
A: The activation was inactive: -16.6%.

Q: How did the activation turn out when `CCCCNC(=O)C1CCC(CNS(=O)(=O)c2ccc(C)cc2)CC1` (configuration not stated) was run?
A: Its activation is inactive: -12.4%.

Q: For `COc1ccc(C2CC(=O)Nc3c2c(=O)n(C)c2nc4ccccc4n32)cc1` (configuration not stated), which activation is on record?
A: The activation was inactive: 16.2%.

Q: `COc1ccc(-c2noc(-c3ccc(C)cc3Cl)n2)cc1OC` was tested. Which activation did it give?
A: The activation was inactive: -2.55%.

Q: `CCOC(=O)c1[nH]c(C)c(C(=O)NCc2cccc(OC)c2)c1C` was tested. Which activation did it give?
A: Its activation is active: 61%.

Q: `CCc1ccccc1NC(=O)Cn1c(=O)n(CC(=O)NCCc2ccccc2)c(=O)c2ccccc21` was tested. Which activation did it give?
A: The activation was inactive: 6.65%.

Q: For `COc1ccc(CC(=O)NCCc2csc(-c3ccc(C(F)(F)F)cc3)n2)cc1`, which activation is on record?
A: The activation was inactive: 24.7%.

Q: For `COc1cc(Cl)c(C)cc1NC(=O)CSc1cc(-c2ccccc2)nc(C)n1`, which activation is on record?
A: The activation was inactive: -8.08%.

Q: Which activation does the source give for `COc1ccc(C(=O)c2cn(Cc3cccc(C)c3)c3cc4c(cc3c2=O)OCO4)cc1` here?
A: Its activation is inactive: 32.3%.

Q: `CS(=O)(=O)n1nc(-c2ccco2)nc1NCc1ccccc1Cl` was tested. Which activation did it give?
A: The activation was inactive: -15.5%.

Q: How did the activation turn out when `Cc1c(/C=C(\C#N)C(=O)Nc2cccc(Cl)c2)c2ccccc2n1Cc1ccccc1` was run?
A: The activation was inactive: -1.34%.

Q: For `COC(=O)c1sc2cccc(F)c2c1S(=O)(=O)Nc1ccc(C)cc1Cl`, which activation is on record?
A: Its activation is inactive: -16.8%.

Q: How did the activation turn out when `Cn1c(=O)c2c(SCC(=O)NCc3ccc(F)cc3)nc(-c3ccccc3Cl)nc2n(C)c1=O` was run?
A: The activation was inactive: 2.61%.

Q: `Cc1ccc(NS(=O)(=O)c2ccc3c(c2)[C@H]2C=CC[C@H]2[C@@H](c2ccc(F)cc2)N3)cc1C` was tested. Which activation did it give?
A: Its activation is inactive: -19.4%.

Q: How did the activation turn out when `COc1ccccc1N1CCN(C(=O)CCn2nc(C)c(S(=O)(=O)N3CCCC3)c2C)CC1` was run?
A: Its activation is inactive: -2.74%.

Q: For `NC(=O)NS(=O)(=O)c1ccc(N)cc1`, which activation is on record?
A: The activation was inactive: 12.1%.

Q: Which activation does the source give for `Cc1ccc(NC(=O)CSc2nc3ccc(NC(=O)COc4ccc(C)cc4)cc3s2)cc1` here?
A: The activation was inactive: 5.43%.

Q: With `O=C(Nc1ccc2[nH]c(=O)c(=O)[nH]c2c1)c1cccc(F)c1` as the compound, how does the activation read?
A: The activation was inactive: -3.22%.

Q: With `O=C(Nc1nnc(C2CC(=O)N(c3ccc(Cl)cc3)C2)s1)c1ccco1` (configuration not stated) as the compound, how does the activation read?
A: The activation was inactive: -14.5%.

Q: With `Cc1ccc(SCc2nc(-c3ccc(C(=O)Nc4cc(C)ccc4C)cc3)oc2C)cc1` as the compound, how does the activation read?
A: The activation was inactive: -17.6%.

Q: For `Cc1nc2c(-c3ccccc3)c(C)nn2c(C)c1CCC(=O)Nc1ccccc1F`, which activation is on record?
A: Its activation is active: 60.5%.

Q: With `Cc1ccccc1C1=CCN(c2ncc(NC(=O)c3ccc(Cl)cc3)cc2C(=O)O)CC1` as the compound, how does the activation read?
A: Its activation is inactive: 6.07%.

Q: Which activation does the source give for `Cc1nc2nc(SCC(=O)NCCc3ccc(Cl)cc3)nn2c(C)c1Cc1ccccc1Cl` here?
A: The activation was inactive: -17.6%.

Q: How did the activation turn out when `COC(=O)c1ccccc1NC(=O)c1cc(C)nc2c1c(C)nn2-c1ccc(C)cc1` was run?
A: Its activation is inactive: 1.79%.

Q: With `COc1cccc(OCC(=O)NC2CC(=O)N(c3ccc4c(c3)OCCO4)C2)c1` (configuration not stated) as the compound, how does the activation read?
A: The activation was inactive: -12.6%.

Q: With `COc1ccc(C2CC(=O)c3c([nH]c(C(=O)OC4CCCCCC4)c3C)C2)cc1` (configuration not stated) as the compound, how does the activation read?
A: The activation was inactive: 3.32%.

Q: How did the activation turn out when `COc1ccc(OC)c(NC(=O)CSC2=Nc3ccccc3C3=NC(CC(=O)NCc4ccc(F)cc4)C(=O)N23)c1` (configuration not stated) was run?
A: Its activation is inactive: -25.6%.

Q: `COc1cc(OC)c(NC(=O)n2ncc3cc(Cl)ccc32)cc1Cl` was tested. Which activation did it give?
A: The activation was inactive: -13.8%.

Q: Which activation does the source give for `Cc1ccc2nc(-c3ccc(NC(=O)c4ccccc4S(C)(=O)=O)cc3)sc2c1` here?
A: The activation was inactive: 9.4%.

Q: With `Cc1ccc(Cl)cc1NC(=O)NCc1cccn1Cc1ccc(F)cc1` as the compound, how does the activation read?
A: The activation was inactive: -16.7%.

Q: `O=C(Nc1ccccc1O)c1cc(S(=O)(=O)N2CCCC2)ccc1Cl` was tested. Which activation did it give?
A: The activation was inactive: -4.36%.

Q: Which activation does the source give for `Cc1ccc(CNC(=O)CSc2ncc(S(=O)(=O)c3ccc(C)c(Cl)c3)c(=O)[nH]2)cc1` here?
A: The activation was inactive: 1.67%.
